Laboratory results reported in the supplement of paper PMC11417369.
± gives the standard deviation of the averaged measurements. Some of the results follow.

These sequences were tested on PfAP2-I AP2 domain 3 (GST-tagged) (assay: gcPBM binding intensity (ln(normalized median fluorescence intensity)); higher = stronger DNA binding).
How it was run: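 DNA-binding domains from P. falciparum, fused to GST and produced in E. coli, were put on an Agilent 4 × 180k double-stranded probe array for 1 h in 1× PBS holding 1% milk, 0.2 mg/ml BSA, 0.5% salmon testes DNA and 0.03% Triton X-100. Probes were primer-extended, 36 bp long and drawn from intergenic genomic regions, with negative controls included. After Alexa488 anti-GST antibody detection and a 488 nm scan, binding intensity was set as the highest Masliner-normalised natural-log median intensity across replicate spots of either probe orientation.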

**Q.** How did the “gcPBM binding intensity (ln)” value turn out when “TGATTTGTGCCGATTTGTACACATTTATATATATAT [XGTACX_site2154]” was run?
**A.** 9.205 ± 0.049

**Q.** With “ATTTTTTCATATTCTACACACGTGAACAAATGAGTC [CACACA_site5635]” as the sequence, how does the “gcPBM binding intensity (ln)” value read?
**A.** 8.14 ± 0.64

**Q.** For “TACATACATACATACACACACATATATATATATATA [CACACA_site1944]”, which “gcPBM binding intensity (ln)” value is on record?
**A.** 9.68 ± 0.49

**Q.** Which “gcPBM binding intensity (ln)” value does the source give for “TTTATATGGATTTTTTTTTAATATTTCTTTTAATTT [TGCATGCA_negctrl_site361]” here?
**A.** 7.33 ± 0.42

**Q.** Which “gcPBM binding intensity (ln)” value does the source give for “ATAAAAAAAAAAAATACACACATATATTTATTTATA [CACACA_site6903]” here?
**A.** 7.43 ± 0.47

**Q.** For “ATATGCTATTTACTAGTGCAAAATATTTAAAATATG [GTGCAC_site9517]”, which “gcPBM binding intensity (ln)” value is on record?
**A.** 10.2 ± 0.42

**Q.** Which “gcPBM binding intensity (ln)” value does the source give for “TAAAAAAAAAAAAAAAGTACAAAAAAAATATTTTTT [XGTACX_site7941]” here?
**A.** 7.75 ± 0.45

**Q.** “TTAATATAAGCAAATACACACACACCGATATATATA [CACACA_site9269]” was tested. Which “gcPBM binding intensity (ln)” value did it give?
**A.** 8.25 ± 0.72

**Q.** “GTTGCACAATGTTACACACACAATATAGATCGTTAA [CACACA_site6717]” was tested. Which “gcPBM binding intensity (ln)” value did it give?
**A.** 8.15 ± 0.43

**Q.** For “GGCATGACTATCTGCACACATAAAAATAAGAAATAC [CACACA_site841]”, which “gcPBM binding intensity (ln)” value is on record?
**A.** 8.94 ± 0.19

**Q.** How did the “gcPBM binding intensity (ln)” value turn out when “GATTTATACAAATATGTACACACTAATTATATATTA [CACACA_site8045]” was run?
**A.** 8 ± 0.53

**Q.** How did the “gcPBM binding intensity (ln)” value turn out when “ATAAACAGAAAAAAAAAAAAAAAAAAAAAAAAAAAA [CACACA_negctrl_site143]” was run?
**A.** 8.11 ± 0.77

**Q.** How did the “gcPBM binding intensity (ln)” value turn out when “TTTTTTTTCTCACAAAAAATAATTAACAAAAAGGAA [XGTACX_negctrl_site154]” was run?
**A.** 7.88 ± 0.31

**Q.** For “AAATAATATTTTACATGTACATAATAATTATTGGAT [XGTACX_site2783]”, which “gcPBM binding intensity (ln)” value is on record?
**A.** 7.77 ± 0.47

**Q.** For “ATAAAAATAAAAAACTGTACATACAAGATGTTACAG [XGTACX_site6690]”, which “gcPBM binding intensity (ln)” value is on record?
**A.** 7.49 ± 0.48

**Q.** Which “gcPBM binding intensity (ln)” value does the source give for “ATGCTTCCTTAGGAATGTACACACATATATAATATG [XGTACX_site873]” here?
**A.** 7.81 ± 0.61

**Q.** With “TAAATATTTAAATATTGTACTAGGTATAATTGAATA [XGTACX_site3604]” as the sequence, how does the “gcPBM binding intensity (ln)” value read?
**A.** 7.65 ± 0.37

**Q.** “TTATTGTACTTGCTCGCATGCAATAAAAATATATTA [TGCATGCA_site580]” was tested. Which “gcPBM binding intensity (ln)” value did it give?
**A.** 7.93 ± 0.32

**Q.** For “GTATATATTAAAAAAAAAAAAAAAAAATTAAAATTA [CACACA_negctrl_site572]”, which “gcPBM binding intensity (ln)” value is on record?
**A.** 7.14 ± 0.33

**Q.** With “TAGACTGGACATTAATGTACATAAATATATATGTAT [XGTACX_site7726]” as the sequence, how does the “gcPBM binding intensity (ln)” value read?
**A.** 7.68 ± 0.49

**Q.** How did the “gcPBM binding intensity (ln)” value turn out when “TATAAGAAAAATAACACACACATAAACATATATACA [CACACA_site2785]” was run?
**A.** 7.87 ± 0.42

**Q.** How did the “gcPBM binding intensity (ln)” value turn out when “AAAAAAAAAATTCATTGTACATATATATATATATAT [XGTACX_site8346]” was run?
**A.** 9.7 ± 0.5

**Q.** With GGAATATTAATAAGAGTGCATTTTGTATTCAATATG as the sequence, how does the “gcPBM binding intensity (ln)” value read?
**A.** 9.52 ± 0.13

**Q.** Which “gcPBM binding intensity (ln)” value does the source give for “ATAAGAAGAAGAAAAACACACATATGTAGATATATA [CACACA_site7469]” here?
**A.** 7.81 ± 0.65

**Q.** “ATATATATATATATATGTACTTATTTATATATTTAT [XGTACX_site7811]” was tested. Which “gcPBM binding intensity (ln)” value did it give?
**A.** 9.39 ± 0.93

**Q.** For “TGGTTATTTATCTTTATTATAAATATTTACAAATAA [CACACA_negctrl_site1773]”, which “gcPBM binding intensity (ln)” value is on record?
**A.** 7.61 ± 0.38

**Q.** Which “gcPBM binding intensity (ln)” value does the source give for “TTCTTTTTAAATTACACACACATATATATCTGTATA [CACACA_site5863]” here?
**A.** 8.05 ± 0.59

**Q.** With “ATGAACATACAATATACACACATATAGATTTATATT [CACACA_site6524]” as the sequence, how does the “gcPBM binding intensity (ln)” value read?
**A.** 7.68 ± 0.61

**Q.** How did the “gcPBM binding intensity (ln)” value turn out when “TCATTATTAATATGTAGTACATTATATGATATGTAT [XGTACX_site8978]” was run?
**A.** 7.99 ± 0.071

**Q.** How did the “gcPBM binding intensity (ln)” value turn out when “TAAAGGATTTTCGAAGCATGCCACCTGTGACATACT [TGCATGCA_site130]” was run?
**A.** 7.42 ± 0.81

**Q.** “TTTATACAATTAGACACACACAAAAAGTATATATAT [CACACA_site1082]” was tested. Which “gcPBM binding intensity (ln)” value did it give?
**A.** 8.05 ± 0.67

**Q.** With “CAAATACCCGGACACACACACACAAAAAAAAAAAAA [CACACA_site4441]” as the sequence, how does the “gcPBM binding intensity (ln)” value read?
**A.** 8.32 ± 0.49

**Q.** “ATGGGTATATTTCCACGTACAAAAAATCCGAATTGC [XGTACX_site1490]” was tested. Which “gcPBM binding intensity (ln)” value did it give?
**A.** 8.04 ± 0.57

**Q.** Which “gcPBM binding intensity (ln)” value does the source give for “ATATAATTACATTGATGTACACGAAATGATTAACAT [XGTACX_site5183]” here?
**A.** 8.78 ± 0.83

**Q.** For “CATTCAAAGAAAAACTGTACGTGTAGCAAACGTCAT [XGTACX_site2576]”, which “gcPBM binding intensity (ln)” value is on record?
**A.** 7.76 ± 0.71

**Q.** For “ATATCAATATAAAGTACACACTATAGTATGTATTAT [CACACA_site5286]”, which “gcPBM binding intensity (ln)” value is on record?
**A.** 7.75 ± 0.38

**Q.** For ATTATTAATAATTGTGTGCACAAATATTTATATGCT, which “gcPBM binding intensity (ln)” value is on record?
**A.** 10.815 ± 0.007

**Q.** “ATATTGTATTATCTTTATGTACCAAAAAAAAAAAAA [CACACA_negctrl_site1036]” was tested. Which “gcPBM binding intensity (ln)” value did it give?
**A.** 8.15 ± 0.68

**Q.** With “ATTATCCATCAAAAGGTGCAAATTTTTAATTATAAA [GTGCAC_site9932]” as the sequence, how does the “gcPBM binding intensity (ln)” value read?
**A.** 10.5 ± 0.49

**Q.** For “AAAGATGATAAAATATGTACACACAGTTTATACATT [XGTACX_site8703]”, which “gcPBM binding intensity (ln)” value is on record?
**A.** 7.67 ± 0.33

**Q.** Which “gcPBM binding intensity (ln)” value does the source give for “TGAGTCTTTTACATTGCACACACATTTCTTTCCTTT [CACACA_site8978]” here?
**A.** 8.87 ± 0.51

**Q.** For “TATATATATATATGTAGTACTTTACAAAATAATTCG [XGTACX_site5322]”, which “gcPBM binding intensity (ln)” value is on record?
**A.** 9.47 ± 0.42

**Q.** How did the “gcPBM binding intensity (ln)” value turn out when AATAAATTCATGATAGTGCAAAAATTATTTTTGTTA was run?
**A.** 9.49 ± 0.028

**Q.** How did the “gcPBM binding intensity (ln)” value turn out when “GCATAACCTTTATATTGTACATATACCTTTATTGTT [XGTACX_site6046]” was run?
**A.** 8.33 ± 0.88
